# Test results published in PMC12040169 (PLOS Biology, 2025).
# The list shows a part of the results.
# Test system: T1, C. trachomatis L2/434/Bu expressing GFP (CTL2-GFP)
# T1 construct: L2/434/Bu GFP intracellular growth in HeLa cells
# Parameters: species or system HeLa; C. trachomatis total inclusion area by high-content imaging, normalised to DMSO
# Details: total inclusion area; 28.5 h, 10 µM; inhibitor
# Procedure, shortened: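 Following bulk GFP and resorufin fluorescence reads, infected cells were fixed, Hoechst-stained and imaged on a high-content platform. Inclusion total area and number per well served as growth proxies; nuclei counts indicated host viability. MICs were derived as for the fluorescence assay.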
row,SMILES,% of control remaining
1,COc1ccccc1Cc1cccc(C2CCCN2C(=O)Cc2c[nH]c3ccccc23)n1 (stereo not drawn) [CBK286139],75.9738
2,Cc1cc(S(=O)(=O)Nc2ccccc2-c2nnnn2C(C)C)c(C)o1 [CBK306259],77.9341
3,O=c1[nH]c(=O)c2cc(S(=O)(=O)Nc3ccccc3-c3ccccc3)ccc2[nH]1 [CBK286374],92.1051
4,Cn1nc(-c2cccs2)cc1[C@H]1CN2CC[C@H]1C[C@@H]2CNC(=O)c1ccco1 [CBK289100],104.099
5,Cc1cc(NC(=O)CN2CCCC2CC(O)c2ccccc2)no1 (stereo not drawn) [CBK305139],52.1793
6,S=c1[nH]cnc2sc3c(c12)CCCC3 [CBK027787],67.3897
7,CC(=O)Nc1ccc(-c2ccc(C(=O)NCC3COc4ccccc4O3)cn2)cc1 (stereo not drawn) [CBK158832],86.3473
8,Cc1cc(C)c2nc(NC(=O)c3ccc(=O)n(CC(=O)NC4CCCCC4)c3)sc2c1 [CBK285980],84.3411
9,Cc1nnc(SCc2cc(=O)nc(NC(=N)Nc3cccc(Cl)c3)[nH]2)s1 [CBK266318],54.8238
10,C1=CCC(CN(CCCn2ccnc2)CC2CCOC2)CC1 (stereo not drawn) [CBK283217],115.663
11,Cc1cc(COc2ccnc(N3CCCN(CC(N)=O)CC3)n2)no1 [CBK084036],48.0854
12,Cc1ccc(C(CNCc2cn(C)nc2-c2cccnc2)N(C)C)cc1 (stereo not drawn) [CBK305343],91.8922
13,N#CCCCN1CCC(Oc2nccnc2OCc2ccc(-c3ccccc3)cc2)CC1 [CBK161566],61.8195
14,CC(=O)Nc1ccc(Nc2cc(-c3ccco3)ncn2)cc1 [CBK090719],152.829
15,Cc1cccc(-c2ncc(C(=O)NCc3csc4ccc(Cl)cc34)cc2-c2ccncc2)c1 [CBK036770],72.6827
16,COC(=O)C(C)CN1CC2CCC(CC2)C1 (stereo not drawn) [CBK022785C],75.3239
17,CCCc1cnc(N2CCN(CC(=O)Nc3ccc(C(C)=O)cc3)CC2)nc1 [CBK086194],108.887
18,Cc1ccc(S(=O)(=O)N(CC(=O)Nc2ccccc2-c2ccccc2)c2cccc(C)c2)cc1 [CBK265988],66.9098
19,Cc1ccc2nsnc2c1NC(=O)CN1CCC(C)CC1 [CBK269568],92.2371
20,O=c1[nH]c(NCCCO)nc2sc3c(c12)CCCC3 [CBK025611],30.0022
21,O=C(Cn1cnc2c(oc3ccccc32)c1=O)Nc1ccc2c(c1)OCO2 [CBK287557],92.3633

row,SMILES,% of control remaining
1,CNC(=O)C1(Cc2cccc(-c3cccs3)c2)CCN(C(=O)CCc2ccccc2)CC1 [CBK285913],115.108
2,CN(C)c1cccc(COc2cncc(N3CCNCC3)n2)c1 [CBK200004],46.5885
3,Cc1cc(S(=O)(=O)Nc2cccc(C(=O)O)c2)c(C)c(S(=O)(=O)c2ccccc2)c1 [CBK263227],56.2784
4,Cc1c(NC(=S)NCCCN2CCOCC2)c(=O)n(-c2ccccc2)n1C [CBK008032],67.2556
5,CC(SC1CCc2ccccc2NC1=O)C(=O)O (stereo not drawn) [CBK286652],77.1123
6,CCOC(=O)N1CCC(NC(=O)N2CCN(c3ccc(F)cc3)CC2)CC1 [CBK156429],96.3433
7,O=C1N[C@@H]2CCN(C(=O)COc3cccnc3)C[C@@H]2CCCCCOc2ccccc21 [CBK292037],132.598
8,Cc1nc(C)c(C(=O)NCC(C)(C)N2CCCCC2)o1 [CBK281866],103.682
9,O=C1NC[C@@H](Cc2ccccc2)NC(=O)C2(C/C=C/COc3ccccc31)CCN(C(=O)CN1CCCC1)CC2 [CBK292184],65.267
10,Cc1ccc(S(=O)(=O)CC(=O)Nc2ncccn2)cc1 [CBK269800],102.593
11,N#Cc1ccc2nc([C@H]3CCN(C(=O)c4ccccc4)C3)[nH]c2c1 [CBK289379],106.398
12,CCNC(=O)N1C[C@@H]2OCC(=O)N(Cc3ccccc3)[C@@H]2C1 [CBK289679],99.406
13,CC(NC(=O)c1ccc(F)cc1Cl)c1ccccc1 (stereo not drawn) [CBK270317],86.2325
14,CCN(CC)C(=O)CN1CCN(c2nccnc2OCc2cccnc2)CC1 [CBK083140],94.7741
15,C[C@@H](Cn1nc2c(cc1=O)CCCC2)NC(=O)c1ccccc1F [CBK284560],106.531
16,COc1ccc(C2CCN(CC(=O)NCc3ccco3)CC2)cc1 [CBK283562],95.6553
17,COc1cc(NC(=O)COc2cccc3ccccc23)c(C(=O)O)cc1OC [CBK268253],130.812
18,O=C(c1c[nH]c(=O)c(Cl)c1)N1CCCCC1CN1CCOCC1 (stereo not drawn) [CBK304416],99.6679
19,COc1ccc(-n2ncc3c2CC(C)(C)CC3N)cc1 (stereo not drawn) [CBK306789],95.7238
20,CN1CCC(=NNC(=O)c2ccc(CN3CCOCC3)cc2)CC1 [CBK262749],87.9799
21,Cc1c(CN2CCCCC2CCN2CCCC2=O)oc2ccccc12 (stereo not drawn) [CBK282181],91.1874

row,SMILES,% of control remaining
1,O=C(Cc1ccccn1)N1CCN(Cc2ccccc2)CC1 [CBK200174],96.951
2,Cc1ncsc1CCOC(=O)N1C[C@@H](C)O[C@@H](C)C1 [CBK200418],89.0743
3,Clc1ccc(-c2ccc(CNCCCN3CCOCC3)o2)cc1 [CBK269562C],94.0565
4,O=C(Nc1ccncc1)c1c(O)n(Cc2ccccc2)c2ccccc2c1=O [CBK291222],87.3844
5,C=Cn1ncc(CN(CCN(C)C)Cc2ccc(C)o2)c1C [CBK283236],92.8143
6,CCOC(=O)N1CCC(NS(=O)(=O)c2ccc(NC(C)=O)cc2)CC1 [CBK045470],58.6587
7,Cc1ccc(C(=O)NC2CCCC2)cn1 [CBK200117],97.865
8,O=C(CN1CC(O)CC1c1cccc(C(F)(F)F)c1)NCc1cccs1 (stereo not drawn) [CBK305253],90.8724
9,CC1=NN(c2ccc(S(N)(=O)=O)cc2)C(=O)/C1=C\c1ccc(-c2cc([N+](=O)[O-])ccc2C)o1 [CBK263460],103.125
10,Cc1cccc(NS(=O)(=O)c2ccc(I)cc2)n1 [CBK268818],108.698
11,CCOc1ccc(S(=O)(=O)N2CCC(C(=O)N3CCN(C)CC3)CC2)cc1 [CBK270075],82.7437
12,COc1ccc(N2CCN(c3cncc(-c4cccnc4)n3)CC2)cc1OC [CBK066086],79.7324
13,CCN(CC)C(=O)c1cccc(OC)c1 [CBK012105],103.315
14,c1ccc2[nH]c(CCc3nc4ccccc4[nH]3)nc2c1 [CBK261807],83.8447
15,O=C1CC2(CCCC2)C(=O)N1c1ccc(S(=O)(=O)NC2CCN(Cc3ccccc3)CC2)cc1Cl [CBK074650],86.6888
16,Cc1nn(C)c(C)c1CN(C)C(=O)CCCC(=O)O [CBK286879],97.0491
17,NNC(=O)CNC(c1cc(Br)ccc1N)c1ccccc1Cl (stereo not drawn) [CBK262977],102.481
18,c1ccc(-n2nnnc2CSc2nc3ccccc3s2)cc1 [CBK266372],72.2142
19,CC1CN(C(=O)c2ncoc2-c2ccc(F)cc2)CC(C)O1 (stereo not drawn) [CBK282379],108.378
20,CC(=O)Nc1cccc(CNC(=O)c2cccnc2OCC(F)(F)F)c1 [CBK304557],46.9763
21,CSCCCNC(=O)N1CCN(CCc2ccccc2)CC1 [CBK158900],98.513

row,SMILES,% of control remaining
1,CC(=O)NCCNC(=O)c1cc(Br)c[nH]1 [CBK297767],99.773
2,Oc1ccc(CN2CCN(c3ncccn3)CC2)cc1 [CBK261567],93.2293
3,Oc1ccc(/C=N/Nc2nncc(-c3ccccc3)n2)c(O)c1O [CBK262492],65.0183
4,O=C(c1cccc(NS(=O)(=O)c2cc(F)c(Br)cc2F)c1)N1CCOCC1 [CBK039007],81.9855
5,Cc1csc2ncnc(NCCc3ccccn3)c12 [CBK017060],58.0736
6,COc1ccc(/C=C/c2nc(C#N)c(NCc3cccnc3)o2)cc1OC [CBK269240],83.004
7,Cc1nc(C)c(C(=O)N2CCc3[nH]c4ccccc4c3C2)o1 [CBK281873],93.7637
8,OC1(c2cccnc2)C2CCCC1CN(Cc1cccc(F)c1F)C2 (stereo not drawn) [CBK285205],89.9612
9,O=C(NCC1CCCCC1)N1CCN(c2ccc(F)cc2)CC1 [CBK156397],91.5732
10,Cc1c(C)[n+]([O-])c2cc(N3CCN(C)CC3)c(Cl)cc2[n+]1[O-] [CBK263503],93.151
11,CC(C(=O)NC1(C#N)CCCCC1)N1CCOC(CN(C)C)C1 (stereo not drawn) [CBK305155],105.278
12,Cc1cccc(C)c1OCC(=O)N1CCC(c2cc(C(=O)NC(C)C)c3ccccc3n2)C1 (stereo not drawn) [CBK285916],95.4162
13,CCc1noc(C(C)N2CCN(CC(=O)NCc3ccco3)CC2)n1 (stereo not drawn) [CBK305368],58.2814
14,Cc1cc(N2CCOCC2)c2c(N)c(C)cc(C)c2n1 [CBK126908],107.925
15,O=C(c1ccccc1)n1cc(-c2ccccn2)c(N2CCOCC2)n1 [CBK021010],99.8723
16,COC(=O)CNC(c1cc(Br)ccc1N)c1ccccc1Cl (stereo not drawn) [CBK262605],105.589
17,Cc1ccc(N)c(C(=O)CCCCC(=O)O)c1 [CBK260970],83.1714
18,CC(C)(CN)CN(Cc1ccccc1Br)C(=O)NCc1ccc(F)cc1 [CBK002469C],75.6628
